By IC50 is meant the dose at which the fit gives 50% viability; a limit (>, <) means that the fit lies beyond the doses tested. For AUC the same curve is integrated over the 256-fold range of doses and scaled to a fraction; values near 1 show little effect. For some assays here: A top dose marked as inferred was derived from the fitted curves, not read from the paper. For some assays here: An entry number marks a drug with two screens in the source, which often give different values.
Legend:
Assay in all cases: Viability of human cancer cell lines after 72 h of drug (GDSC screen)
Docetaxel = compound: CC(=O)O[C@@]12CO[C@@H]1C[C@H](O)[C@@]1(C)C(=O)[C@H](O)C3=C(C)[C@@H](OC(=O)[C@H](O)[C@@H](NC(=O)OC(C)(C)C)c4ccccc4)C[C@@](O)([C@@H](OC(=O)c4ccccc4)[C@H]21)C3(C)C [Docetaxel]; details: top dose 0.0125 µM
Method: (§1)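 Human cancer cell lines in 384-well plates, medium with 10% serum, drug for 72 h over a 256-fold dose range (nine 2-fold or five 4-fold steps up to the top dose). Adherent lines were fixed and stained with the nucleic acid dye Syto60, suspension lines read with resazurin; signal relative to control wells, capped at 0 and 100%. One two-parameter sigmoid per drug and line, fitted in a mixed model over all curves with the slope shared within a line.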

AMG-706 = compound: CC1(C)CNc2cc(NC(=O)c3cccnc3NCc3ccncc3)ccc21 [AMG-706]; details: top dose 2 µM; top dose inferred
Method: as §1

JNK Inhibitor VIII = compound: CCOc1nc(NC(=O)Cc2cc(OC)ccc2OC)cc(N)c1C#N [JNK Inhibitor VIII]; details: top dose 10 µM; top dose inferred
Method: as §1

FTI-277 = compound: COC(=O)[C@H](CCSC)NC(=O)c1ccc(NC[C@@H](N)CS)cc1-c1ccccc1 [FTI-277]; details: top dose 1.024 µM; top dose inferred
Method: as §1

NVP-TAE684 = compound: COc1cc(N2CCC(N3CCN(C)CC3)CC2)ccc1Nc1ncc(Cl)c(Nc2ccccc2S(=O)(=O)C(C)C)n1 [NVP-TAE684]; details: top dose 2 µM
Method: as §1

OSI-906 = compound: C[C@]1(O)C[C@@H](c2nc(-c3ccc4ccc(-c5ccccc5)nc4c3)c3c(N)nccn32)C1 [OSI-906]; details: top dose 2.56 µM; top dose inferred
Method: as §1

SB-715992 = compound: Cc1ccc(C(=O)N(CCCN)[C@@H](c2nc3cc(Cl)ccc3c(=O)n2Cc2ccccc2)C(C)C)cc1 [SB-715992]; details: top dose 0.128 µM; top dose inferred
Method: as §1

JQ1 = compound: Cc1sc2c(c1C)C(c1ccc(Cl)cc1)=N[C@@H](CC(=O)OC(C)(C)C)c1nnc(C)n1-2 [JQ1]
Method: as §1

CGP-60474 = compound: OCCCNc1cc(-c2ccnc(Nc3cccc(Cl)c3)n2)ccn1 [CGP-60474]; details: top dose 0.256 µM; top dose inferred
Method: as §1

Cyclopamine = compound: CC1=C2C[C@H]3[C@@H](CC=C4C[C@@H](O)CC[C@@]43C)[C@@H]2CC[C@]12O[C@@H]1C[C@H](C)CN[C@H]1[C@H]2C [Cyclopamine]; details: top dose 16 µM; top dose inferred
Method: as §1

NSC-207895 = compound: CN1CCN(c2ccc([N+](=O)[O-])c3no[n+]([O-])c23)CC1 [NSC-207895]; details: top dose 20 µM; top dose inferred
Method: as §1

YM155 = compound: COCC[n+]1c2c(n(Cc3cnccn3)c1C)C(=O)c1ccccc1C2=O [YM155]; details: top dose 5.12 µM
Method: as §1

Belinostat = compound: O=C(/C=C/c1cccc(S(=O)(=O)Nc2ccccc2)c1)NO [Belinostat]; details: top dose 20 µM; top dose inferred
Method: as §1

JNJ-26854165 = compound: c1ccc2c(CCNc3ccc(Nc4ccncc4)cc3)c[nH]c2c1 [JNJ-26854165]; details: top dose 10 µM
Method: as §1

[1] = top dose 1 µM, screen: GDSC drug entry 1218, top dose inferred
[2] = top dose 2.56 µM, screen: GDSC drug entry 163

| Cell Line | AUC (Docetaxel) | IC50 (Docetaxel) | AUC (AMG-706) | IC50 (AMG-706) | AUC (JNK Inhibitor VIII) | IC50 (JNK Inhibitor VIII) | AUC (FTI-277) | IC50 (FTI-277) | AUC (NVP-TAE684) | IC50 (NVP-TAE684) | AUC (OSI-906) | IC50 (OSI-906) | AUC (SB-715992) | IC50 (SB-715992) | AUC (JQ1; [1]) | IC50 (JQ1; [1]) | AUC (JQ1; [2]) | IC50 (JQ1; [2]) | AUC (CGP-60474) | IC50 (CGP-60474) | AUC (Cyclopamine) | IC50 (Cyclopamine) | AUC (NSC-207895) | IC50 (NSC-207895) | AUC (YM155) | IC50 (YM155) | AUC (Belinostat) | IC50 (Belinostat) | AUC (JNJ-26854165) | IC50 (JNJ-26854165) |
| --- | --- | --- | --- | --- | --- | --- | --- | --- | --- | --- | --- | --- | --- | --- | --- | --- | --- | --- | --- | --- | --- | --- | --- | --- | --- | --- | --- | --- | --- | --- |
| A704 (kidney, adherent) | 0.915 | > 0.0125 µM | 0.975 | > 2 µM | 0.989 | > 10 µM | 0.848 | 0.724 µM | 0.768 | 0.724 µM | 0.972 | > 2.56 µM | 0.989 | > 0.128 µM | 0.988 | > 1 µM | 0.986 | > 2.56 µM | 0.828 | 0.151 µM | – | – | – | – | – | – | – | – | – | – |
| CP67-MEL (melanoma, adherent) | – | – | – | – | – | – | – | – | 0.89 | > 2 µM | – | – | – | – | – | – | – | – | 0.654 | 0.0592 µM | – | – | – | – | – | – | – | – | – | – |
| EW-1 (Ewing sarcoma, semi-adherent) | – | – | 0.936 | > 2 µM | 0.926 | > 10 µM | 0.98 | > 1.02 µM | 0.496 | 0.122 µM | 0.417 | 0.0967 µM | 0.533 | 0.00978 µM | 0.988 | > 1 µM | 0.851 | 1.72 µM | 0.684 | 0.0498 µM | 0.988 | > 16 µM | 0.964 | > 20 µM | 0.021 | < 0.02 µM | 0.236 | 0.234 µM | 0.882 | 9.07 µM |
| EW-16 (Ewing sarcoma, adherent) | – | – | 0.858 | 1.77 µM | 0.951 | > 10 µM | 0.966 | > 1.02 µM | 0.496 | 0.122 µM | 0.531 | 0.195 µM | 0.693 | 0.0287 µM | 0.958 | > 1 µM | 0.805 | 1.37 µM | 0.596 | 0.0297 µM | 0.985 | > 16 µM | 0.985 | > 20 µM | 0.038 | < 0.02 µM | 0.293 | 0.315 µM | 0.812 | 5.63 µM |
| HCE-4 (oesophagus, adherent) | – | – | – | – | – | – | 0.99 | > 1.02 µM | 0.833 | 1.04 µM | – | – | 0.961 | > 0.128 µM | 0.987 | > 1 µM | 0.974 | > 2.56 µM | 0.678 | 0.0464 µM | – | – | 0.99 | > 20 µM | 0.875 | 3.83 µM | 0.961 | > 20 µM | 0.811 | 4.4 µM |
| IA-LM (large cell lung carcinoma, adherent) | 0.874 | > 0.0125 µM | 0.96 | > 2 µM | 0.969 | > 10 µM | 0.835 | 0.788 µM | 0.943 | > 2 µM | 0.979 | > 2.56 µM | 0.875 | > 0.128 µM | 0.955 | > 1 µM | 0.514 | 0.176 µM | 0.644 | 0.0422 µM | – | – | 0.978 | > 20 µM | 0.079 | < 0.02 µM | 0.727 | 6.05 µM | 0.899 | > 10 µM |
| IST-MES1 (mesothelioma, adherent) | – | – | – | – | – | – | 0.985 | > 1.02 µM | 0.804 | 1.01 µM | 0.932 | > 2.56 µM | 0.977 | > 0.128 µM | 0.986 | > 1 µM | 0.819 | 1.47 µM | 0.781 | 0.107 µM | 0.882 | > 16 µM | 0.988 | > 20 µM | 0.376 | 0.145 µM | 0.495 | 1.21 µM | 0.875 | > 10 µM |
| K5 (thyroid, adherent) | – | – | 0.982 | > 2 µM | 0.985 | > 10 µM | 0.945 | > 1.02 µM | 0.78 | 0.787 µM | 0.955 | > 2.56 µM | 0.814 | 0.066 µM | 0.986 | > 1 µM | 0.842 | 1.68 µM | 0.609 | 0.0314 µM | 0.988 | > 16 µM | 0.986 | > 20 µM | 0.309 | 0.0956 µM | 0.512 | 1.35 µM | 0.672 | 1.84 µM |
| KARPAS-620 (haematopoietic neoplasm, suspension) | 0.911 | > 0.0125 µM | 0.991 | > 2 µM | 0.991 | > 10 µM | 0.99 | > 1.02 µM | 0.489 | 0.117 µM | 0.329 | 0.0579 µM | 0.871 | 0.0919 µM | 0.8 | 0.405 µM | 0.543 | 0.205 µM | 0.684 | 0.0479 µM | – | – | 0.922 | > 20 µM | 0.03 | < 0.02 µM | 0.226 | 0.232 µM | 0.921 | > 10 µM |
| KG-1 (acute myeloid leukaemia, suspension) | – | – | 0.989 | > 2 µM | 0.99 | > 10 µM | 0.99 | > 1.02 µM | 0.71 | 0.455 µM | 0.99 | > 2.56 µM | 0.937 | > 0.128 µM | – | – | – | – | 0.924 | > 0.256 µM | 0.983 | > 16 µM | 0.893 | 19.4 µM | 0.65 | 0.793 µM | 0.285 | 0.333 µM | 0.988 | > 10 µM |
| KP-N-RT-BM-1 (neuroblastoma, semi-adherent) | – | – | – | – | – | – | – | – | 0.636 | 0.334 µM | – | – | – | – | – | – | – | – | 0.809 | 0.187 µM | – | – | – | – | – | – | – | – | – | – |
